Results reported in PubChem BioAssay AID504333 (National Center for Advancing Translational Sciences (NCATS), 2011).
Hit rate of the full screen: of about 360,000 compounds, about 16,000 (4.4%) were called active. The inconclusive results got no clear call from the source; some entries with a clear call stand among them for comparison. Calls follow the shape of the dose curve; as a rule, active = well fitted inhibition curve with a large enough effect; inconclusive = small, poorly fitted or top-dose-only effect; inactive = no such curve, though single readings can be large or run the other way. Where the call is inconclusive, the potency comes from a doubtful curve fit.
Also: nearly all actives have a fitted effect of over 60% in size.
Potency is read from the fitted curve at half-maximal effect; tags tell the direction and shape of the fitted curve.

The compounds below were run against Bromodomain adjacent to zinc finger domain protein 2B (Homo sapiens) (UniProt Q9UIF8) (assay: qHTS Assay for Inhibitors of BAZ2B). Conditions: AlphaScreen BAZ2B-H3K14Ac peptide displacement; series mostly up to 114 µM.
Sequence of UniProt Q9UIF8 (Q9UIF8 whole entry, looked up, the tested form may be a part): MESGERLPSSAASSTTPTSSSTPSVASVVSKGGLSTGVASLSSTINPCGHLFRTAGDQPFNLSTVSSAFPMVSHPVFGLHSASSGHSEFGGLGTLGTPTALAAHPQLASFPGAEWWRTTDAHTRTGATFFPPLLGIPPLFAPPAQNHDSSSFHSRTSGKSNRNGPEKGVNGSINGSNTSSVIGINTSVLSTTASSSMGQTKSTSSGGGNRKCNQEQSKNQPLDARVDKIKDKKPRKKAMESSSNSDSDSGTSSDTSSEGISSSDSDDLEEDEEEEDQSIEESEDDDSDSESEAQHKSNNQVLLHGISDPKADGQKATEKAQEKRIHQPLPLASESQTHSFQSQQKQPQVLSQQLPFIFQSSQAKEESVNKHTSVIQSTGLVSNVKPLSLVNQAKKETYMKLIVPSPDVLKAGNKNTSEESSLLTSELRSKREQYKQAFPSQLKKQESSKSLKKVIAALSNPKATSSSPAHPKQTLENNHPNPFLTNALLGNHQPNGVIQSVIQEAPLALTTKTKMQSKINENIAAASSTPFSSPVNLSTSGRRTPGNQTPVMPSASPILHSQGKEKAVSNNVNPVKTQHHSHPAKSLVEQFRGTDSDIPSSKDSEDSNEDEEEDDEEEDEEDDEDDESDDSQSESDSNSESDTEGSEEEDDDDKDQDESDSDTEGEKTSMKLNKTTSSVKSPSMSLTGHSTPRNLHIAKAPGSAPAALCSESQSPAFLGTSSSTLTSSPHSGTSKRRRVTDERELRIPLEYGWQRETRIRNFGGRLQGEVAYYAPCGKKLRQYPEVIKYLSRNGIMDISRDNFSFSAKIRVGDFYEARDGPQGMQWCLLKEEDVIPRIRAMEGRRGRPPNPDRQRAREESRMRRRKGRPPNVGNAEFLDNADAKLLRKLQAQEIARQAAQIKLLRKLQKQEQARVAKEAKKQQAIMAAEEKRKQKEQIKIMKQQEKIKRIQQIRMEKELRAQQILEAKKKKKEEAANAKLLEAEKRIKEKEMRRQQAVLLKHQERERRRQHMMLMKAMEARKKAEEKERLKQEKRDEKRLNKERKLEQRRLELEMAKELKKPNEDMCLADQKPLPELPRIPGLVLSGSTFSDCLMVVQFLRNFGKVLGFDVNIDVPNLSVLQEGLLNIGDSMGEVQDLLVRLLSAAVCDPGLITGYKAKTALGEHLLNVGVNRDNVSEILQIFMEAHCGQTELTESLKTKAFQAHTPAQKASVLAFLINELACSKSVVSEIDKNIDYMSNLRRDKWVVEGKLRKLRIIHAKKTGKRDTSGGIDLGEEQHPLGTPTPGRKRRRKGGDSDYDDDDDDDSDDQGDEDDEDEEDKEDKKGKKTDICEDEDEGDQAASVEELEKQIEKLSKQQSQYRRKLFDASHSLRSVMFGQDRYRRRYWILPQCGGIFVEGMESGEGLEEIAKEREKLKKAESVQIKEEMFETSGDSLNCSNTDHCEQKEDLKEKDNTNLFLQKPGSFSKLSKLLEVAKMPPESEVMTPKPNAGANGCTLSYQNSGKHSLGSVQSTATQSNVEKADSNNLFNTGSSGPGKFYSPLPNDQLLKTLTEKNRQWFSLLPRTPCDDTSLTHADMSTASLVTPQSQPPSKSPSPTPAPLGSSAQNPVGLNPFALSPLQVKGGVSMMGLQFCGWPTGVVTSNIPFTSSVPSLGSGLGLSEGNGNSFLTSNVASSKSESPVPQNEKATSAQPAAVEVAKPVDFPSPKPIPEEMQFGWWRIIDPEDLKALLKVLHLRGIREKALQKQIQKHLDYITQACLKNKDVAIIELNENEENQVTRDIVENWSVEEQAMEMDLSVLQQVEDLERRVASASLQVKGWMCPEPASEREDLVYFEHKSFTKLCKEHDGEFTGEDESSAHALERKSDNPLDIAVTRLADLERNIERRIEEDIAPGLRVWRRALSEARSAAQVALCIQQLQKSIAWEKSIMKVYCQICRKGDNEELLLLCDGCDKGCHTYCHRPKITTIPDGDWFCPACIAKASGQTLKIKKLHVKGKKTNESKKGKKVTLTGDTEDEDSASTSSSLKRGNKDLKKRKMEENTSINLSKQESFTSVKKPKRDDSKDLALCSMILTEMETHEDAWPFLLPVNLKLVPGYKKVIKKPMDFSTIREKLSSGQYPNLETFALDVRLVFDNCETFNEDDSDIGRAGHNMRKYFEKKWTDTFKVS
In short: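 In this displacement format the biotinylated H3(5-23) peptide acetylated at Lys14 serves as ligand at 50 nM, with BAZ2B at 50 nM in PBS pH 7.4 containing 0.01% Tween-20. Donor and acceptor beads are 10 ug/mL final.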
In the case of `Cc1ccccc1C(=O)c1cccn1CC(=O)NCCN1CCN(c2cccc(C)c2C)CC1`, the Potency is reported as inconclusive: 50.1 µM [inhibitor, partial curve]. `COc1ccc(S(=O)(=O)N2CCOCC2)cc1NC(=O)CSc1nnc2ccccn12` was tested, and the Potency was “inactive”. With `COc1ccc(-c2cc(C)no2)cc1S(=O)(=O)N1CC(C)Oc2ccccc21` (stereo not given) the Potency was inconclusive: 44.7 µM [inhibitor, full curve, poor fit]. In the case of `CCOC(=O)C1=C(C)NC2=C(C(=O)c3ccccc32)C1c1ccc([N+](=O)[O-])o1` (stereo not given), the Potency is reported as active: 11.2 µM. `C/C(=N/NC(=O)CNc1ccc(C)cc1)c1ccc(Cl)cc1` was tested, and the Potency was inconclusive: 70.8 µM [inhibitor, single point]. `COc1ccc(N2CCN(S(=O)(=O)c3ccc4c(c3)N(C(C)=O)CCO4)CC2)cc1` was tested, and the Potency was inconclusive: 39.8 µM [inhibitor, full curve]. For `O=C(Nc1ccc2oc(-c3cc(Br)ccc3Cl)nc2c1)c1ccc2ccccc2c1`, the Potency was inconclusive: 79.4 µM [inhibitor, single point]. For `Cc1onc(-c2ccccc2Cl)c1C(=O)NCCN1CCOCC1`, the Potency was inconclusive: 8.91 µM [inhibitor, single point]. `CCS(=O)(=O)c1ccc2oc(SCC(=O)NC34CC5CC(CC(C5)C3)C4)nc2c1` was tested, and the Potency was active: 56.2 µM. With `CC(C)(C)c1ccc(S(=O)(=O)N2CCN(C(=O)c3cc(-c4ccc(Br)cc4)n[nH]3)CC2)cc1` the Potency was “inactive”. In the case of `CCc1noc(C)c1C(=O)N1CC(C)SC1=Nc1ccc(Cl)cc1` (stereo not given), the Potency is reported as “inactive”. For `COc1ccc(CNC(=O)CNC(c2ccccc2)c2ccccc2)cc1OC`, the Potency was “inactive”. With `CCOC(=O)c1sc(=S)n(-c2cc(OC)ccc2OC)c1N` the Potency was inconclusive: 50.1 µM [inhibitor, partial curve]. In the case of `O=C(CSc1ncc2c(n1)-c1ccccc1N(Cc1ccc(F)cc1)S2(=O)=O)NCc1ccccc1`, the Potency is reported as inconclusive: 89.1 µM [inhibitor, single point]. For `Cc1nc2cccnc2n1C1CCN(S(=O)(=O)c2ccc(C(C)C)cc2)CC1`, the Potency was inconclusive: 79.4 µM [inhibitor, single point]. `Cc1ccc2c(c1)cc(C)c1nnc(SCC(=O)NCc3ccco3)n12` was tested, and the Potency was inconclusive: 89.1 µM [inhibitor, single point]. In the case of `Fc1cccc(CCN2C(=S)NC[C@@H]2CC2CCCCC2)c1`, the Potency is reported as “inactive”. `CC1=CCC(/C=N\Nc2nnc3c(n2)[nH]c2ccccc23)CC1` (stereo not given) was tested, and the Potency was active: 50.1 µM. In the case of `CCN(CC)CCNC(=O)C(Oc1ccccc1)Oc1ccccc1`, the Potency is reported as “inactive”. For `COCCNC(=O)c1cn(C(C)c2ccccc2F)nn1` (stereo not given), the Potency was “inactive”.
